# Source: article PMC3722281
# The chains behind the UniProt entries cited, without tags or fusion partners.
# UniProt Q64261: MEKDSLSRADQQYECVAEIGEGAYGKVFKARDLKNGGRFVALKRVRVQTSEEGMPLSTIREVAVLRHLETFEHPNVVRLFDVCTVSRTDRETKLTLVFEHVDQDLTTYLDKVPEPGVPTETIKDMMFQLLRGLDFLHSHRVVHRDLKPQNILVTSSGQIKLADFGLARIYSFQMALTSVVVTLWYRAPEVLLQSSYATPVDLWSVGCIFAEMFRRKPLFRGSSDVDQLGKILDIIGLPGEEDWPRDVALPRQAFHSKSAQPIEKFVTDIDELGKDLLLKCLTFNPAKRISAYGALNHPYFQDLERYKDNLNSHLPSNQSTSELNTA
# No constants are given. Whether binding was seen depends on the method and setting. In cells and extracts the contact can be indirect. Some entries that bind do so weakly or less than the wild type.
# T1: mouse p16 R79L mutant (mouse) (UniProt P51480)
# T1 sequence: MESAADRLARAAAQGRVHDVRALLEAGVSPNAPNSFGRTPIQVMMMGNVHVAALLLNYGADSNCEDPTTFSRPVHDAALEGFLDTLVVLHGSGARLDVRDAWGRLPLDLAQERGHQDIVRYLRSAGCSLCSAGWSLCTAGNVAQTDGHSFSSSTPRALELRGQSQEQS
# T2: mouse p16 E112K mutant (mouse) (UniProt P51480)
# T2 sequence: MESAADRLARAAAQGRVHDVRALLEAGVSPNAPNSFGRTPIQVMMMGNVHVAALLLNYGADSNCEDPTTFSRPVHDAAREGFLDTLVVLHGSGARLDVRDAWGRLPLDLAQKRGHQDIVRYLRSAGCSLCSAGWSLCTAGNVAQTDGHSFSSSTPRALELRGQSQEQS
# T3: mouse p16 D76V mutant (mouse) (UniProt P51480)
# T3 sequence: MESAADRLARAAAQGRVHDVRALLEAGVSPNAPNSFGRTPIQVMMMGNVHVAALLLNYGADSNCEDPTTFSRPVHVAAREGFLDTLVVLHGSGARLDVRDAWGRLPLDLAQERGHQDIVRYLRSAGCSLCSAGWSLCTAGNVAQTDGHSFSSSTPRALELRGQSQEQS
# T4: wild type mouse p16 (mouse) (UniProt P51480)
# T4 sequence: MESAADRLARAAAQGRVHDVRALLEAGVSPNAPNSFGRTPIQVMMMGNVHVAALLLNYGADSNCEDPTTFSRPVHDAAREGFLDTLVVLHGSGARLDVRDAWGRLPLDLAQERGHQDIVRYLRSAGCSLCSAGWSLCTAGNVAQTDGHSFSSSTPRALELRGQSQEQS
# T5: mouse p16 A12S mutant (mouse) (UniProt P51480)
# T5 sequence: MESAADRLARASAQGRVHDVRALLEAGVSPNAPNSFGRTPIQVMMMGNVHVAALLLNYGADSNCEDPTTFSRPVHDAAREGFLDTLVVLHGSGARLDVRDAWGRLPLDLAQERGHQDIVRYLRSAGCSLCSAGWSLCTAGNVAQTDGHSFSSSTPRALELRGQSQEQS
# T6: mouse p16 D66N mutant (mouse) (UniProt P51480)
# T6 sequence: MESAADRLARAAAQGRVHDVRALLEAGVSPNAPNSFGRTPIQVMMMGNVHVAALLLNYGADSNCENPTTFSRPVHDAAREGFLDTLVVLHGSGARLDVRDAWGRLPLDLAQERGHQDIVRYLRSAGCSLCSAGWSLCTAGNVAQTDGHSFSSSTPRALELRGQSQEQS
# Legend:
# Assay in all cases: co-IP; cell lysate mixed with RIPA buffer lacking SDS and deoxycholate, anti-p16 antibody (Santa Cruz) and Protein A/G beads; immunoblot for Cdk4 and Cdk6; MM189 cells expressing ectopic p16 proteins
# [1] = target: T1, mouse p16 R79L mutant (mouse)
# [2] = target: T2, mouse p16 E112K mutant (mouse)
# [3] = target: T3, mouse p16 D76V mutant (mouse)
# [4] = target: T4, wild type mouse p16 (mouse)
# [5] = target: T5, mouse p16 A12S mutant (mouse)
# [6] = target: T6, mouse p16 D66N mutant (mouse)
molecule,measurement,setting,value
Cdk6 (from UniProt Q64261 1-326) (enzyme),binding,[1],binds weakly
same,binding,[2],binds
same,binding,[3],no binding
same,binding,[4],binds
same,binding,[5],binds
same,binding,[6],no binding
"Cdk4 (enzyme, UniProt P30285 1-303) MAATRYEPVAEIGVGAYGTVYKARDPHSGHFVALKSVRVPNGGAAGGGLPVSTVREVALLRRLEAFEHPNVVRLMDVCATSRTDRDIKVTLVFEHIDQDLRTYLDKAPPPGLPVETIKDLMRQFLSGLDFLHANCIVHRDLKPENILVTSNGTVKLADFGLARIYSYQMALTPVVVTLWYRAPEVLLQSTYATPVDMWSVGCIFAEMFRRKPLFCGNSEADQLGKIFDLIGLPPEDDWPREVSLPRGAFAPRGPRPVQSVVPEMEESGAQLLLEMLTFNPHKRISAFRALQHSYLHKEESDAE",binding,[1],no binding
same,binding,[2],binds
same,binding,[4],binds
same,binding,[5],binds
same,binding,[6],no binding
